Data taken from PubChem BioAssay AID651820 (National Center for Advancing Translational Sciences (NCATS), 2012).
The whole screen tested about 340,000 compounds, of which about 12,000 (3.5%) were called active. This list was built around the results that the source calls inconclusive (neither active nor inactive); the mix of calls is not that of the screen. The call rests on the fitted dose curve; in most records, active means well fitted inhibition curve with a large enough effect; inconclusive means small, poorly fitted or top-dose-only effect, or another doubt; inactive means no such curve, though single readings can be large or run the other way. Potencies of inconclusive entries are left out as doubtful fits.

test: qHTS Assay for Inhibitors of Hepatitis C Virus (HCV); settings: Huh7.5.1 HCVcc-Cre (HCVcc is cell-culture hepatitis C virus) infection, luciferase reporter, 44 h; series mostly up to 41.8 µM
Method in brief: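 HCVcc-Cre virus at an moi near 0.5 was added right after compound to cells cultured 4 h from seeding (1,000 cells/well). Luciferase activity was determined 44 h later, 15 min after substrate addition at RT.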
Potency means the concentration at half of the fitted maximal effect; tags describe the fitted curve by direction and shape.

Row | SMILES | Potency
1 | COc1ccc(-c2csc(NC(=O)c3ccccc3F)n2)cc1 | inactive
2 | COc1ccc(CN(C)CC(=O)Nc2cc3oc4ccccc4c3cc2OC)c(OC)c1 | inconclusive [inhibitor, partial curve]
3 | CCOC(=O)/C(C#N)=C/c1cc2cc(C)c(C)cc2nc1Cl | inactive
4 | C=CCn1c(C(C)NC(=O)CCC)nc2ccccc21 (configuration not stated) | active: 11.2 µM
5 | Cc1cc(C)c(NC(=O)COC(=O)c2nc3nccc(C)n3n2)c(Cl)c1 | inactive
6 | COC(=O)[C@]1(Cc2ccccc2)N[C@H](c2ccc(-c3cc(C(C)=O)cs3)cc2)[C@@H]2C(=O)N(C)C(=O)[C@@H]21 | inconclusive [inhibitor, full curve]
7 | CC(=O)Nc1ccc(Nc2nc(-c3sc(C)nc3C)cs2)cc1 | inconclusive [inhibitor, partial curve]
8 | COc1cc2ccccc2cc1C(=O)OCC(=O)c1c(N)n(C)c(=O)n(C)c1=O | inactive
9 | CN1CCN(c2ccccc2NC(=O)c2ccc(-c3cccc([N+](=O)[O-])c3)o2)CC1 | active: 5.62 µM
10 | COCCNC(=O)Cn1nc(-c2ccccc2C)ccc1=O | inactive
11 | CCN(CC(=O)NC(C)C)C(=O)[C@H](C)NC(=O)c1ccc(Br)cc1 | inconclusive [inhibitor, single point]
12 | COc1ccc(/C=C(\NC(=O)c2ccccc2)C(=O)N2CCCCC2)cc1OC | inconclusive [inhibitor, single point]
13 | CSc1nnc2c(n1)c(C)nn2-c1cccc(C)c1 | inconclusive [inhibitor, partial curve]
14 | Cc1ccc(C(=O)CSc2ncnc3sc4c(c23)CCCC4)cc1 | inconclusive [inhibitor, partial curve]
15 | Cc1ccccc1OCC(=O)Nc1ccc(NC(=O)c2ccco2)cc1 | inconclusive [inhibitor, full curve]
16 | CCOc1cc(C(=O)NCC(C)(C)CNC(=O)c2cc(OCC)c(OCC)c(OCC)c2)cc(OCC)c1OCC | inconclusive [inhibitor, partial curve]
17 | Cc1[nH][nH]c(=O)c1C(c1ccc(-c2ccccc2C(=O)O)o1)c1c(C)[nH][nH]c1=O | inactive
18 | Cc1ccc2nc(N3CCN(C(=O)c4cccs4)CC3)c(C#N)cc2c1 | inconclusive [inhibitor, single point]
19 | O=C(OCc1nnc(-c2ccccc2)o1)c1cn(-c2ccccc2)nc1-c1ccccc1 | active: 11.2 µM
20 | COc1cc(OC)c2c(c1)OC(=O)CC2c1ccc2c(c1)OCO2 (configuration not stated) | inconclusive [inhibitor, partial curve]
21 | Clc1ccc(CSc2ccc(-c3ccccn3)nn2)cc1 | inconclusive [inhibitor, single point]
22 | O=c1c2c3nc4ccccc4nc3n(/N=C/c3cccs3)c2ncn1-c1ccccc1 | inconclusive [inhibitor, single point]
23 | CCCCOc1c(Br)cc(CNCCCN2CCOCC2)cc1OC | active: 3.98 µM
24 | COc1ccc(S(=O)(=O)Cc2ccccc2)cc1N | inactive

Row | SMILES | Potency
25 | COc1ccc(C(C)=O)cc1COC(=O)c1ccc(OCc2c(C)noc2C)cc1 | inconclusive [inhibitor, single point]
26 | CN(CC(=O)Nc1ccccc1Cl)C(=O)c1ccc(Cl)c(S(=O)(=O)N2CCCCCC2)c1 | inconclusive [inhibitor, single point]
27 | COc1ccccc1/C=N/NC(=O)NC12CC3CC(CC(C3)C1)C2 | inconclusive [inhibitor, single point]
28 | N#Cc1cn(Cc2ccccc2)c2ccccc12 | inconclusive [inhibitor, single point]
29 | Cn1c(=O)c2nc(-c3ccccc3)c(-c3ccccc3)nc2n(C)c1=O | inconclusive [inhibitor, single point]
30 | O=C(O)c1cc(-c2ccco2)[nH]n1 | inactive
31 | COc1ccc2c(C)cc(SCC(=O)N3CCOCC3)nc2c1 | inactive
32 | O=C(Cc1ccc(-c2ccccc2)cc1)NCc1cccnc1 | inconclusive [inhibitor, single point]
33 | COc1ccc(Cn2c(-c3ccco3)nc3oc4cc(OC)ccc4c(=O)c3c2=O)cc1 | inconclusive [inhibitor, partial curve]
34 | Cc1ccc(Cn2c(C3CCCN3c3nc(C)cs3)nc3cc(C(F)(F)F)ccc32)cc1 (configuration not stated) | inconclusive [inhibitor, partial curve]
35 | Cc1ccccc1NC(=O)c1ccc(NS(=O)(=O)c2cc(C(C)(C)C)cc(C)c2C)cc1 | inconclusive [inhibitor, single point]
36 | Cc1ccc(S(=O)(=O)NCc2ccc(C(=O)N3CCN(c4ccccn4)CC3)cc2)cc1 | inconclusive [inhibitor, single point]
37 | COc1ccc(C2NC(=O)NC3=C2CCc2ccccc23)cc1 (configuration not stated) | inconclusive [inhibitor, single point]
38 | C[C@H](CO)N1C[C@H](C)[C@H](CN(C)C(=O)Nc2ccc(F)cc2)Oc2c(NC(=O)c3ccc(-c4nccs4)cc3)cccc2C1=O | inconclusive [inhibitor, full curve, poor fit]
39 | COc1ccc(-n2c(SCC(=O)C(C)(C)C)nc3c(sc(=S)n3-c3ccccc3)c2=O)c(OC)c1 | inconclusive [inhibitor, partial curve]
40 | CCN(CCNC(=O)CCCn1nc(C)n2c(cc3sccc32)c1=O)c1ccccc1 | inconclusive [inhibitor, full curve]
41 | CC(=O)C1=C(C)NC(SCSc2ccccc2)=C(C#N)C1c1cccnc1 (configuration not stated) | inconclusive [inhibitor, partial curve]
42 | CCOCC(=O)Nc1c(C(=O)Nc2ccc3c(c2)OCCO3)oc2ccccc12 | inconclusive [inhibitor, single point]
43 | CCCCNCc1cc(OC)c(OCC(N)=O)cc1Br | inconclusive [inhibitor, single point]
44 | COc1ccc(-c2nc(CSCC(=O)NCCC3=CCCCC3)c(C)o2)cc1OC | inconclusive [inhibitor, single point]
45 | COc1cccc(CNC(=O)CSc2nc3ccc(C)cc3[nH]2)c1 | inactive
46 | CCN(CC)S(=O)(=O)c1cccc(NC(=O)COC(=O)/C=C/c2cccs2)c1 | inactive
47 | Cc1ccc(C(=O)CCNc2ccc(Br)cc2)o1 | inactive
48 | Cn1c(-c2ccco2)nc2cc3ccccc3cc21 | inconclusive [inhibitor, partial curve]

Row | SMILES | Potency
49 | O=C(/C=C/c1cccs1)NC1CCS(=O)(=O)C1 (configuration not stated) | inactive
50 | CCOC(=O)c1c(NC(=O)CCl)sc(CN(C)C)c1-c1ccccc1 | inconclusive [inhibitor, single point]
51 | CCOc1ccc(CNC(=O)CCS(=O)(=O)c2ccc3c(c2)NC(=O)CO3)cc1OC | inactive
52 | O=C(Nc1ccc(Cl)cc1C(=O)Nc1ccncc1)c1ccco1 | active: 11.2 µM
53 | CCOC(=O)N1CCC(N(CCN(C)C)C(=S)Nc2cc(Cl)ccc2C)CC1 | inconclusive [inhibitor, partial curve]
54 | COc1ccc(S(=O)(=O)N2CCOCC2)cc1NC(=O)c1ccncc1 | inactive
55 | C/C(=N\NC(=O)C1CC1)c1ccc(C)cc1C | inactive
56 | CCOC(=O)c1c(-c2ccccc2)csc1NC(=O)C1CCCO1 (configuration not stated) | active: 10 µM
57 | CCOc1ccccc1NC(=O)c1csc(C)c1C | inconclusive [inhibitor, partial curve]
58 | COc1cccc(Nc2nnc(SCC3CCCCO3)s2)c1 (configuration not stated) | inactive
59 | C#CCSc1nc(-c2cccs2)ccc1C#N | active: 4.47 µM
60 | CSc1nc(-c2ccccc2)nc(NC(C)=O)c1C(C)=O | inconclusive [inhibitor, partial curve]
61 | CCC1Cc2c(nc(N)c3c(N)nc(N4CCCCC4)c(C#N)c23)O1 (configuration not stated) | inconclusive [inhibitor, single point]
62 | CCNc1ccc(C(=O)Nc2ccc3nc(C)sc3c2)cc1[N+](=O)[O-] | inconclusive [inhibitor, partial curve]
63 | S=C(Nc1cccc(Cl)c1)N1CCN(c2ccccn2)CC1 | inactive
64 | CCCCC(=O)Nc1nc(C)c(-c2csc(Nc3cc(OC)ccc3OC)n2)s1 | active: 10 µM
65 | CC1CCN(CC(=O)n2c3c(c4ccccc42)CCCC3)CC1 | inconclusive [inhibitor, partial curve]
66 | O=C(c1cc(-c2ccc(Cl)cc2)nc2ccccc12)N1CCC1 | inconclusive [inhibitor, single point]
67 | O=C(NCc1ccccc1F)c1ccc2ccccc2n1 | inactive
68 | CC(=O)c1ccc(N=Nc2ccc(N)cc2)cc1 | inconclusive [inhibitor, partial curve]
69 | CCCS(=O)(=O)N1CCC(C(=O)NCCCOC(C)C)CC1 | inactive
70 | CCCOP(=O)(OCCC)c1nc(-c2ccccc2)oc1NCc1ccccc1 | inconclusive [inhibitor, single point]
71 | COc1ccc(C(=O)Nc2cccc(/C(C)=N\NC(=O)c3ccoc3C)c2)cc1OC | inconclusive [inhibitor, partial curve]
72 | COc1ccc(OC)c(/C=C2\SC(N3CCCC(C)C3)=NC2=O)c1 (configuration not stated) | inconclusive [inhibitor, single point]
